Results reported in the supplement of paper PMC6089552.
Screen size: about 3,200 compounds; about 300 (9.4%) showed activity. This is a selection; strong and weak results do not stand in their true shares.

System: A673/TR/shEF
Assay: cell viability (LOESS-normalised, relative to median of negative controls) (log2 ratio); higher = more viable cells (less compound effect), active = hit call of the paper (over 3 MAD below the median)
Settings: treatment time: 72 h
How it was run: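 A673/TR/shEF Ewing sarcoma cells were plated at 1,500 per well in 384-well plates and cultured with or without doxycycline, added 24 h before compounds, to induce EWS-FLI1 shRNA knockdown. Library compounds at two or more concentrations, alongside DMSO controls, were applied for three days. Cell viability was measured by CellTiter-Glo luminescence on an Envision reader. Readings were LOESS-corrected per plate, divided by the median of negative controls and log2-transformed, and hits were wells lying at least three median absolute deviations from the median of all screened wells.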

[1] = 0.25 µM, library screen: screen2, EWS-FLI1 expression: high (no doxycycline)
[2] = 0.25 µM, library screen: screen2, EWS-FLI1 expression: low (doxycycline-induced shRNA knockdown)
[3] = 2.5 µM, library screen: screen2, EWS-FLI1 expression: high (no doxycycline)
[4] = 2.5 µM, library screen: screen2, EWS-FLI1 expression: low (doxycycline-induced shRNA knockdown)
[5] = 0.25 µM, library screen: screen1, EWS-FLI1 expression: high (no doxycycline)
[6] = 0.25 µM, library screen: screen1, EWS-FLI1 expression: low (doxycycline-induced shRNA knockdown)
[7] = 2.5 µM, library screen: screen1, EWS-FLI1 expression: high (no doxycycline)
[8] = 2.5 µM, library screen: screen1, EWS-FLI1 expression: low (doxycycline-induced shRNA knockdown)

Measured: cell viability (log2)

OC1C=CC(Br)C(O)C1O (configuration not stated)
inactive: [1] 0.12 | [2] 0.141 | [3] 0.0654 | [4] 0.0803

CC(=O)Oc1ccc2c(c1)CC[C@@H]1[C@@H]2CC[C@]2(C)[C@@H](O)CC[C@@H]12
inactive: [5] 0.103 | [6] -0.00729 | [7] 0.0771 | [8] 0.0723

Cc1oncc1C(=O)Nc1ccc(C(F)(F)F)cc1
inactive: 0.025 µM, library screen: screen2, EWS-FLI1 expression: high (no doxycycline) 0.158 | 0.025 µM, library screen: screen2, EWS-FLI1 expression: low (doxycycline-induced shRNA knockdown) 0.127 | 0.103 µM, library screen: screen3, EWS-FLI1 expression: high (no doxycycline) 0.0152 | 0.103 µM, library screen: screen3, EWS-FLI1 expression: low (doxycycline-induced shRNA knockdown) 0.0531 | [5] 0.137 | [6] 0.0208 | [1] 0.12 | [2] 0.0726 | 0.308 µM, library screen: screen3, EWS-FLI1 expression: high (no doxycycline) 0.00609 | 0.308 µM, library screen: screen3, EWS-FLI1 expression: low (doxycycline-induced shRNA knockdown) 0.148 | 0.926 µM, library screen: screen3, EWS-FLI1 expression: high (no doxycycline) 0.0713 | 0.926 µM, library screen: screen3, EWS-FLI1 expression: low (doxycycline-induced shRNA knockdown) 0.0421 | [7] 0.106 | [8] 0.000838 | [3] 0.0518 | [4] 0.0106 | 2.8 µM, library screen: screen3, EWS-FLI1 expression: high (no doxycycline) 0.0408 | 2.8 µM, library screen: screen3, EWS-FLI1 expression: low (doxycycline-induced shRNA knockdown) 0.0338 | 8.3 µM, library screen: screen3, EWS-FLI1 expression: high (no doxycycline) 0.03 | 8.3 µM, library screen: screen3, EWS-FLI1 expression: low (doxycycline-induced shRNA knockdown) 0.0408 | 25 µM, library screen: screen2, EWS-FLI1 expression: high (no doxycycline) 0.0146 | 25 µM, library screen: screen2, EWS-FLI1 expression: low (doxycycline-induced shRNA knockdown) 0.0233 | 25 µM, library screen: screen3, EWS-FLI1 expression: high (no doxycycline) -0.00948 | 25 µM, library screen: screen3, EWS-FLI1 expression: low (doxycycline-induced shRNA knockdown) 0.0523

COc1ccc(C(Cl)=C(c2ccc(OC)cc2)c2ccc(OC)cc2)cc1
inactive: [5] 0.0809 | [6] 0.0758 | [7] 0.133 | [8] 0.183

CCOC(=O)[C@H](CCc1ccccc1)N[C@@H](C)C(=O)N1Cc2ccccc2C[C@H]1C(=O)O
inactive: [5] 0.0721 | [6] -0.0102 | [7] 0.124 | [8] 0.056

CC(CCc1ccccc1)NCC(O)c1ccc(O)c(C(N)=O)c1 (configuration not stated)
inactive: [5] 0.117 | [6] 0.115 | [1] 0.116 | [2] 0.0924 | [7] 0.16 | [8] 0.0628 | [3] 0.126 | [4] 0.159

Cc1cc(O)c(C=O)c2c1C(=O)Oc1c(C)c(O)c3c(c1O2)C(O)OC3=O (configuration not stated)
inactive: [5] 0.122 | [6] 0.106 | [7] 0.124 | [8] 0.0298

CN1C(C)(C)CCCC1(C)C
inactive: [5] 0.119 | [6] 0.116 | [1] 0.0924 | [2] 0.101 | [7] 0.0982 | [8] 0.0107 | [3] 0.129 | [4] 0.0765

Cc1onc(-c2c(Cl)cccc2Cl)c1C(=O)N[C@@H]1C(=O)N2[C@@H]1SC(C)(C)[C@@H]2C(=O)O
inactive: [5] 0.162 | [6] 0.13 | [7] 0.181 | [8] 0.179

CCCCCC[C@@H]([C@@H](C)O)n1cnc2c(N)ncnc21
inactive: [1] 0.208 | [2] 0.0178 | [3] 0.104 | [4] -0.0266

CC[N+](C)(C)Cc1ccccc1Br
inactive: [5] 0.0645 | [6] 0.0676 | [1] 0.15 | [2] 0.144 | [7] 0.126 | [8] -0.0279 | [3] 0.176 | [4] 0.0674

C[N+](C)(C)CCCCCC[N+](C)(C)C
inactive: [5] 0.107 | [6] 0.101 | [1] 0.128 | [2] 0.0242 | [7] 0.0541 | [8] 0.0148 | [3] 0.13 | [4] 0.0584

C[C@H](N)[C@H](O)c1cccc(O)c1
inactive: [5] 0.231 | [6] 0.24 | [7] 0.198 | [8] 0.252

CCN(CC)CCOC(=O)C(Cc1cccc2ccccc12)CC1CCCO1 (configuration not stated)
inactive: [5] 0.0771 | [6] 0.121 | [7] 0.124 | [8] 0.131

Cc1ccc2nc(NC3=NC(CC(=O)O)C(=O)N3)nc(C)c2c1 (configuration not stated)
inactive: [5] 0.016 | [6] -0.0194 | [7] 0.0679 | [8] -0.193

Cc1nc2sccn2c(=O)c1CCN1CCC(=C(c2ccccc2)c2ccc(F)cc2)CC1
inactive: [1] 0.158 | [2] 0.0717 | [3] 0.0856 | [4] 0.0996

COC(=O)C1=C(C)N=c2s/c(=C/c3ccc(OC)cc3OC)c(=O)n2C1c1cccs1 (configuration not stated)
inactive: [5] 0.0522 | [6] 0.13 | [7] 0.0666 | [8] 0.065

NC(=NCCCCCCN=C(N)/N=C(\N)Nc1ccc(Cl)cc1)/N=C(\N)Nc1ccc(Cl)cc1
inactive: [5] 0.0882 | [6] 0.139 | [7] 0.128 | [8] 0.121

COc1c(-c2ccccc2)oc2c(ccc3occc32)c1=O
inactive: [5] 0.149 | [6] -0.022 | [7] 0.148 | [8] -0.0254
